Laboratory results taken from PubChem BioAssay AID686979 (National Center for Advancing Translational Sciences (NCATS), 2013).
Out of some 420,000 compounds screened, about 50,000 (12%) were called active. Inconclusive results, whose numbers are uncertain, are shown with a selection of clear calls. The call rests on the fitted dose curve; in most records, active means well fitted inhibition curve with a large enough effect; inconclusive means small, poorly fitted or top-dose-only effect; inactive means flat fitted curve, though single readings scatter. No potency is given beside an inconclusive call; the fits are too rough.

test: qHTS for Inhibitors of human tyrosyl-DNA phosphodiesterase 1 (TDP1): qHTS in cells in presence of CPT; settings: chicken DT40 Tdp1-/-;hTDP1 cells + 20 nM CPT, ATP luminescence, 48 h; activity change, negative = growth inhibition: at 46.2 µM (top of the series) unless noted; further: nearly all actives have a fitted effect of over 55% in size
Method in brief: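 Chicken DT40 Tdp1-/- cells stably complemented with human TDP1 were seeded at 400 cells/well in medium containing 20 nM camptothecin, exposed to pin-transferred compounds, and grown at 37 °C for at least 48 hr. Viability was read as ATP luminescence.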
On the % scale 0 is the no-effect control and ±100 the full control effect; potency means the concentration at half of the fitted maximal effect; tags describe the fitted curve by direction and shape.

| Compound | Potency | activity change, negative = growth inhibition |
| --- | --- | --- |
| COc1cc(Cc2cc(OC)c(O)c(OC)c2)cc(OC)c1O | active: 16.4 µM |  |
| O=C(Cn1ncc2c3ccccc3n(Cc3cccc(Cl)c3)c2c1=O)N1CCCCC1 | active: 20.6 µM |  |
| COc1cccc(N2CCN(c3ccc4nnc(CCC(=O)Nc5ccc(C)cn5)n4n3)CC2)c1 |  | inconclusive: -34.6% [inhibitor] |
| COc1ccc(CN2C(=O)c3ccccc3C2C(=O)NC2CCCCCC2)c(OC)c1 (centres undefined) | inactive |  |
| COc1ccc(CN(C)C(=O)c2[nH]c(C)c(C(C)=O)c2C)cc1F | inconclusive [inhibitor, single point] |  |
| O=C(Nc1ccc(S(=O)(=O)N2CCCC2)cc1)N1c2ccccc2Sc2ccccc21 | inconclusive [inhibitor, single point] |  |
| COC(=O)[C@@]1(Sc2ccc(C)cc2)CC(=O)N(c2ccc3c(ccn3C)c2)[C@@H]1c1ccccc1 | inconclusive [inhibitor, single point] |  |
| C/C(=N/NC(=O)CNC(=O)c1ccccc1F)c1ccc2c(c1)CCCC2 | inconclusive [inhibitor, single point] |  |
| O=C(N/N=C/c1ccc(N2CCOCC2)s1)c1ccc(NS(=O)(=O)c2cccs2)cc1 |  | inactive: -22.5% |
| COc1ccc(OC)c(-c2nc(CN3CCCCC3c3cccnc3)c(C)o2)c1 (centres undefined) |  | inactive: 4.55% |
| O=C(c1ccco1)N1CCC2(CCCN(c3cccc(-c4ccccc4)c3)C2)CC1 | inconclusive [inhibitor, single point] |  |
| O=C(N/N=C\c1cc([N+](=O)[O-])ccc1N1CCCC1)c1ccccn1 |  | inconclusive: -37.3% [inhibitor] |
| Cc1ccc(S(=O)(=O)N(C)C)cc1-n1c(SCC(=O)Nc2ccc(F)cc2)nc2ccccc2c1=O | inconclusive [inhibitor, single point] |  |
| O=C(NCCN1CCN(S(=O)(=O)c2ccccc2)CC1)C(=O)Nc1ccc(F)cc1 | inconclusive [inhibitor, partial curve] |  |
| COc1ccc(S(=O)(=O)NCc2ccc3c(c2)CCN3C(=O)c2ccccc2)cc1OC | inconclusive [inhibitor, single point] |  |
| CC1Cc2cc(S(=O)(=O)N3CCC(C(N)=O)CC3)ccc2N1C(=O)C1CC1 (centres undefined) |  | inactive: -12.3% |
| COC(=O)c1ccc(Cl)cc1NC(=O)N1CC2CCCN2c2ccccc21 (centres undefined) | inconclusive [inhibitor, single point] |  |
| CC(=O)Nc1ccc(S(=O)(=O)N(C)CC(=O)OCC(=O)c2ccc[nH]2)cc1 |  | inactive: 13.7% |
| C[C@@H](CCc1ccc(O)cc1)NCCc1ccc(O)c(O)c1 | active: 5.96 µM |  |
